The source of these data is PMC11014668.

Chains of the proteins cited; added tags and fusions are not shown.
UniProt P40337: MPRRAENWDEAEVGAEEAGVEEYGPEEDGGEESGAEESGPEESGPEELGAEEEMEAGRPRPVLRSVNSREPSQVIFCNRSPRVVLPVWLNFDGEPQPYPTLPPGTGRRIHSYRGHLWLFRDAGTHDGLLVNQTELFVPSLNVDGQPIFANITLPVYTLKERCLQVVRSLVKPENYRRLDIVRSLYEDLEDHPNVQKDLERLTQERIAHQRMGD

In experiment [1] the target is endogenous VHL (human (endogenous in HKC; cell line of Figure 1F-H not named)) (UniProt P40337). Briefly: co-IP; endogenous VHL immunoprecipitation from HKC cells.
For experiment [2] the target is unchanged. In words: co-IP; endogenous immunoprecipitation with antibodies to VHL, METTL3 or METTL14; cell line not named; EBC buffer, Protein G beads.
The next experiment deals with IVT Flag-VHL (UniProt P40337). In words: pull-down; anti-Flag immunoprecipitation of IVT Flag-VHL with GST-tagged proteins expressed in vitro; EBC buffer, overnight at 4°C, in the presence of RNase.

These are yes or no findings as the source states them, for the method shown. In cells and extracts the contact can be indirect. Some entries that bind do so weakly or less than the wild type. For part of these data: Sequences can lack the tags named with a protein.

B1: endogenous METTL14 (protein, UniProt Q9HCE5 1-456)
chain: MDSRLQEIRERQKLRRQLLAQQLGAESADSIGAVLNSKDEQREIAETRETCRASYDTSAPNAKRKYLDEGETDEDKMEEYKDELEMQQDEENLPYEEEIYKDSSTFLKGTQSLNPHNDYCQHFVDTGHRPQNFIRDVGLADRFEEYPKLRELIRLKDELIAKSNTPPMYLQADIEAFDIRELTPKFDVILLEPPLEEYYRETGITANEKCWTWDDIMKLEIDEIAAPRSFIFLWCGSGEGLDLGRVCLRKWGYRRCEDICWIKTNKNNPGKTKTLDPKAVFQRTKEHCLMGIKGTVKRSTDGDFIHANVDIDLIITEEPEIGNIEKPVEIFHIIEHFCLGRRRLHLFGRDSTIRPGWLTVGPTLTNSNYNAETYASYFSAPNSYLTGCTEEIERLRPKSPPPKSKSDRGGGAPRGGGRGGTSAGRGRERNRSNFRGERGGFRGGRGGAHRGGFPPR
Turning to B1, the binding entry in experiment [1] and in experiment [2] was “binds” in each case.

B2: METTL14-GST (protein, UniProt Q9HCE5 1-456)
chain: MDSRLQEIRERQKLRRQLLAQQLGAESADSIGAVLNSKDEQREIAETRETCRASYDTSAPNAKRKYLDEGETDEDKMEEYKDELEMQQDEENLPYEEEIYKDSSTFLKGTQSLNPHNDYCQHFVDTGHRPQNFIRDVGLADRFEEYPKLRELIRLKDELIAKSNTPPMYLQADIEAFDIRELTPKFDVILLEPPLEEYYRETGITANEKCWTWDDIMKLEIDEIAAPRSFIFLWCGSGEGLDLGRVCLRKWGYRRCEDICWIKTNKNNPGKTKTLDPKAVFQRTKEHCLMGIKGTVKRSTDGDFIHANVDIDLIITEEPEIGNIEKPVEIFHIIEHFCLGRRRLHLFGRDSTIRPGWLTVGPTLTNSNYNAETYASYFSAPNSYLTGCTEEIERLRPKSPPPKSKSDRGGGAPRGGGRGGTSAGRGRERNRSNFRGERGGFRGGRGGAHRGGFPPR
B2: in the experiment with IVT Flag-VHL, the binding result is “binds”.
